# Laboratory results reported in the supplement of paper PMC11417369.
# ± gives the standard deviation of the averaged measurements. The list shows a part of the results.
# System: PfAP2-LT AP2 domain (GST-tagged)
# Test: gcPBM binding intensity (ln(normalized median fluorescence intensity)); higher = stronger DNA binding
# How it was run: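 The binding buffer was 1× PBS containing 1% milk, 0.2 mg/ml BSA, 0.5% salmon testes DNA and 0.03% Triton X-100. In it, GST-tagged P. falciparum DNA-binding domains expressed in E. coli were applied for 1 h to an Agilent 4 × 180k array of primer-extended double-stranded 36-bp intergenic genomic probes plus negative controls. Binding intensity, read with Alexa488 anti-GST antibody and a 488 nm scan, is the highest Masliner-normalised natural-log median intensity across replicate spots of either probe orientation.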
row,Sequence,gcPBM binding intensity (ln)
1,TTCTTGTATATATTTTGTACATATATACCATTTTAG [XGTACX_site2409],9.06 ± 0.46
2,TATATGTTTTTATGTACACACTTTTAACCTAAGAAA [CACACA_site4769],8.68 ± 0.38
3,ATTTATATATAGGTGTGTCCACAAATAGTATGTAAA [XGTACX_site2916],9 ± 0.41
4,GTATATAGTATGTAGAGTACTAATTTCCATATGTTC [XGTACX_site7816],8.81 ± 0.44
5,CAATATTTTCATAGATGTACTTTGGACTTATTATAT [XGTACX_site4849],8.73 ± 0.44
6,GAACGAAATAAGTGTGTGCACATGTAACCACAAATC [GTGCAC_site9829],9.71 ± 0.49
7,AATTAATATATAAATAATAAAAAAAAATATATAAAC [XGTACX_negctrl_site280],8.73 ± 0.57
8,TAAATAAAAGATACGAGTACGTATGATGTTAACCTC [XGTACX_site8840],8.96 ± 0.49
9,CTTATTTAATGTATCACACACGAGAATAAAAAATAA [CACACA_site3020],8.84 ± 0.5
10,TATTTATAAAAATATACACACATACAAATATGCATA [CACACA_site4555],8.84 ± 0.33
11,TATAAGTTGATATATACACACATATATAAATATGTA [CACACA_site7526],8.87 ± 0.37
12,ATGGTTTTCAGAAAAACATGCATACAATAATAAAAA [TGCATGCA_site815],8.68 ± 0.52
13,TTTAAAATAACCAAAAACAAAAAGAAACACAAATGT [GTGCAC_negctrl_site705],8.76 ± 0.42
14,TTTCAAATGGAATGTGTGCACATAAATGTAAATAAA,9.18 ± 0.38
15,GATCAAATAGAAAATACATGCAATGTGTGAAATAAC [TGCATGCA_site835],9.22 ± 0.5
16,AAAAAAAAAATTTACTGTACACATTTGGGATACTCA [XGTACX_site5191],8.61 ± 0.45
17,TTCATTAAAATTATTACACACAGTTCTTCAACCAAA [CACACA_site3504],8.73 ± 0.4
18,ATATGTAGTTTTTATTGTACGTGTAGAAGAAATAAT [XGTACX_site6608],8.8 ± 0.53
19,TTTTAAACAGGACACACACACATATAGATTTATATA [CACACA_site6560],9.52 ± 0.28
20,AAACTTTTTTTAAAAACACACATATAGATTTATATA [CACACA_site7842],8.61 ± 0.43
21,TAGTTTTTTATATATTGTACAAATGATATATTATAT [XGTACX_site1002],8.66 ± 0.4
22,TATTTTTAAACAAAACTGTATTTATTTTTTAAAATT [CACACA_negctrl_site1449],8.16 ± 0.47
23,TTTTGTTATTTTTGTATGCACTACATATTATTATAT,9.19 ± 0.54

row,Sequence,gcPBM binding intensity (ln)
1,ATATATATATATAATTGTACATTTTTATGTTTTATA [XGTACX_site4560],9.1 ± 0.33
2,GAAATTAAAAAATTTATGCACACTTTAAAAAAAAAA [CACACA_site3769],8.47 ± 0.38
3,ATGAAAAAAAATAAAAAATATATATATATATATATA [CACACA_negctrl_site236],9.4 ± 0.4
4,TATATTTTAATTTGAAGTACTAATATTTATTTATAT [XGTACX_site7458],8.34 ± 0.42
5,TATAACCATATATACACACACATATAAATATAAATA [CACACA_site7089],9.46 ± 0.31
6,AAGGTGGAAACAATTACACACACACTAAAAAAAAAA [CACACA_site7493],9.57 ± 0.45
7,ATATATATATATTTCGTGCACTGATAATATTATTTT,9.18 ± 0.37
8,AAAAAGAGGAAAAAGATAAAGAAATTAAAGGAGAGA [CACACA_negctrl_site423],8.73 ± 0.62
9,TTTAATCATTTTATTTGTACTCATAAAAAATATAAT [XGTACX_site5537],8.3 ± 0.5
10,AAAAAATATAAAAAAAGTACACAAAAACTACAAAAA [XGTACX_site2677],8.91 ± 0.51
11,TAATTTCCTTAAGAATGTACTTACATTTTATTATTT [XGTACX_site5998],8.56 ± 0.56
12,ATGGACAAGTTAAACGCACACAAATATATACAGACA [CACACA_site1652],9.63 ± 0.47
13,GTTTATGTATTATTATGTACGTATCATAATATATAT [XGTACX_site2385],8.99 ± 0.41
14,TAATATGAAATGTGTACACACGCACCCACAAAAAAA [CACACA_site8949],9.36 ± 0.35
15,TCTGTAAACATATTCACACACATAAATTCGCATATA [CACACA_site1866],9.17 ± 0.27
16,ACAAAATAATTGTTTACACACCCATTTGTAATTTTA [CACACA_site3615],8.84 ± 0.42
17,GAAAATTTATATTGCACACATAGGGAATAAAAAAAA [CACACA_site2146],9.13 ± 0.42
18,TATCATTGTTCATGCTTGCACTTTTGTTACTGTTCC [GTGCAC_site9425],9.04 ± 0.52
19,TGTATGAAAATAAATGCATGCCAAATATATATATAT [TGCATGCA_site132],9.165 ± 0.078
20,AAAATGAAATATGTTATATATATATATATATATATA [CACACA_negctrl_site1752],9.48 ± 0.14
21,AAGAAGAAACGGAAAAGTACAAAGAAGAAATAAGTA [XGTACX_site3680],9.05 ± 0.64
22,CTTACAGACATATATACACACATGTATATTTTATAT [CACACA_site549],9.12 ± 0.35
23,ATGTTTTTAATTTATTGTACATTAATTTGTATTATT [XGTACX_site253],9.07 ± 0.55

row,Sequence,gcPBM binding intensity (ln)
1,TTTTCTTTTCTCTTCTTTTTCTCCCATTATTAATCT [XGTACX_negctrl_site406],8.6 ± 0.67
2,GAGGATGCCTATGGCACACATTATAAAACTGTCGCT [CACACA_site4322],8.92 ± 0.45
3,TTTTTATTATTTAAATGTACATATAAATATATATAT [XGTACX_site6870],8.53 ± 0.4
4,GAATAAAAATTTTAATGTACATATTTTTTATTTATA [XGTACX_site8935],8.41 ± 0.49
5,ATATTTTATATGTTCACACATACATAAACATATTTT [CACACA_site4948],8.83 ± 0.41
6,GGTAGTTATTATCTCCGTACTTATAAAGAAAAAAGG [XGTACX_site4674],8.57 ± 0.48
7,TTTATTTTCATATGAACACACATATAAATATTATAA [CACACA_site7172],8.69 ± 0.54
8,TACAAATATATAAAATGTACATATATATACATATTA [XGTACX_site3029],8.63 ± 0.38
9,CATAAAATTGTGAAGTGTACATATTTTTAAATATAA [XGTACX_site8986],8.65 ± 0.47
10,ATATATAATATAAGATGTACAATAAAATCTATATAT [XGTACX_site546],8.87 ± 0.53
11,ATAACTTTATTTTCCTGTACACACATTTGACATATT [XGTACX_site7192],9.38 ± 0.4
12,AGAAATATCTAATTGTGTACTCAAGAAAAAGTTACG [XGTACX_site372],8.65 ± 0.47
13,TATATATCGCATAAAACACACAAAAAAAAAATTAAA [CACACA_site7767],8.84 ± 0.51
14,TTATATTCTATTTATTGTACTTAAATATATATATAT [XGTACX_site6400],8.7 ± 0.42
15,ATATATATCTTTTGTGTGCACATATATATAATATAT,9.79 ± 0.31
16,AAAAAAAAAATATACACACACACATACACATAAATA [CACACA_site3808],9.92 ± 0.21
17,TATTTTCCCTCCATATGTACTTAATTATAAGCACAT [XGTACX_site4000],8.82 ± 0.35
18,ATTTCATTTATAAGGATATCTACTTTTTATTTTAAT [GTGCAC_negctrl_site59],8.58 ± 0.51
19,TCTATCTTTTCCAAACGTACATTTTTTATATAAATT [XGTACX_site5352],8.63 ± 0.42
20,AAACGAAAAAAATGGTGTACATTAAAATGAAAATTG [XGTACX_site7040],8.88 ± 0.62
21,TTTTTTTTCCTAATGTGTACTAAAAATGAACAATAA [XGTACX_site5248],8.15 ± 0.4
22,AACATTATTTTGTGTACACATTCGGTTATATTATAT [CACACA_site5628],9.24 ± 0.33
23,TTTTTTATTTTATTTTATTTTTATTTTTTTTTTTTT [GTGCAC_negctrl_site596],8.45 ± 0.64

row,Sequence,gcPBM binding intensity (ln)
1,AAAAAAAAGAAACACACACACATACACATAAATATA [CACACA_site3807],9.84 ± 0.38
2,ATATTTTTTTCATAGACACACACAATATATCTGTTT [CACACA_site8993],9.4 ± 0.38
3,ACTTTATTTTCCTGTACACACATTTGACATATTAAA [CACACA_site3378],9.26 ± 0.3
4,CACCAAACTAAATGTACACACATACATAAATATAAA [CACACA_site4765],9.21 ± 0.46
5,AAAAACAAAAAAAAAACACACAATTCTAGTTATTTT [CACACA_site2767],8.68 ± 0.49
6,ATATATTCCATAAAGGTGCTGTTAACGTGTCAACGT [GTGCAC_site9402],8.67 ± 0.38
7,TTTATGTAAAAATATAGTACATATTAAAAGATAAGA [XGTACX_site8134],8.66 ± 0.44
8,TAAGTATACACATACACACACACACTAAAAAAAAAA [CACACA_site6337],10 ± 0.3
9,TTTTACTTAAGACACACACACACAAAAAAAAAAAAA [CACACA_site6573],9.58 ± 0.4
10,TAAACATAAATATGCACACATATACAGATATTCATA [CACACA_site5471],9.07 ± 0.42
11,ATAAAATACATATAAACACACATATAAACCGACATA [CACACA_site2477],9.28 ± 0.38
12,AGTTTTTACTCTAATGGTACAGTGCAACTAATAAAT [XGTACX_site6950],8.6 ± 0.38
13,TTTAAATATTTTAATACACACACGATATGTACAAAA [CACACA_site4455],8.88 ± 0.36
14,TACAATGAAAAAATAACATGCAATTATATTTCTCTT [TGCATGCA_site833],8.66 ± 0.48
15,TATATATATATATATTGTACTAGTGCATATATATAC [XGTACX_site7926],9.46 ± 0.3
16,ACGTGATAAATAAATACATGCATAGAAAGATGCATA [TGCATGCA_site91],9.03 ± 0.47
17,ATTAAATTTCCTTGAGTGCACATTTTGTTAAAATAT,8.69 ± 0.49
18,ATAACATATTTCTTTTGTACTCAAAATAAAATTAAT [XGTACX_site2479],8.37 ± 0.4
19,AATTTTGTTGAGCACACACACATACATACATACATA [CACACA_site3154],9.63 ± 0.35
20,AAATATATTTTATTTTGTACTTATGTATAAAATATA [XGTACX_site914],8.4 ± 0.34
21,TATTTTAATTTTTTTTTGTTTTTTCTAATACATGTA [CACACA_negctrl_site1399],8.5 ± 0.55
